Measurements: publication PMC4336329 (PLoS ONE, 2015)
Hit rate of the full screen: of about 310,000 compounds, about 2,200 (0.71%) showed an effect of 50% or more. The effect is printed as a negative number. The list shows a part of the results.

Target: human ether-à-go-go-related gene (hERG) potassium channel (human, UniProt Q12809)
Test: primary screen, population patch clamp on CHO cells stably expressing hERG

Sequence of human ether-à-go-go-related gene (hERG) potassium channel (Q12809 whole entry, looked up): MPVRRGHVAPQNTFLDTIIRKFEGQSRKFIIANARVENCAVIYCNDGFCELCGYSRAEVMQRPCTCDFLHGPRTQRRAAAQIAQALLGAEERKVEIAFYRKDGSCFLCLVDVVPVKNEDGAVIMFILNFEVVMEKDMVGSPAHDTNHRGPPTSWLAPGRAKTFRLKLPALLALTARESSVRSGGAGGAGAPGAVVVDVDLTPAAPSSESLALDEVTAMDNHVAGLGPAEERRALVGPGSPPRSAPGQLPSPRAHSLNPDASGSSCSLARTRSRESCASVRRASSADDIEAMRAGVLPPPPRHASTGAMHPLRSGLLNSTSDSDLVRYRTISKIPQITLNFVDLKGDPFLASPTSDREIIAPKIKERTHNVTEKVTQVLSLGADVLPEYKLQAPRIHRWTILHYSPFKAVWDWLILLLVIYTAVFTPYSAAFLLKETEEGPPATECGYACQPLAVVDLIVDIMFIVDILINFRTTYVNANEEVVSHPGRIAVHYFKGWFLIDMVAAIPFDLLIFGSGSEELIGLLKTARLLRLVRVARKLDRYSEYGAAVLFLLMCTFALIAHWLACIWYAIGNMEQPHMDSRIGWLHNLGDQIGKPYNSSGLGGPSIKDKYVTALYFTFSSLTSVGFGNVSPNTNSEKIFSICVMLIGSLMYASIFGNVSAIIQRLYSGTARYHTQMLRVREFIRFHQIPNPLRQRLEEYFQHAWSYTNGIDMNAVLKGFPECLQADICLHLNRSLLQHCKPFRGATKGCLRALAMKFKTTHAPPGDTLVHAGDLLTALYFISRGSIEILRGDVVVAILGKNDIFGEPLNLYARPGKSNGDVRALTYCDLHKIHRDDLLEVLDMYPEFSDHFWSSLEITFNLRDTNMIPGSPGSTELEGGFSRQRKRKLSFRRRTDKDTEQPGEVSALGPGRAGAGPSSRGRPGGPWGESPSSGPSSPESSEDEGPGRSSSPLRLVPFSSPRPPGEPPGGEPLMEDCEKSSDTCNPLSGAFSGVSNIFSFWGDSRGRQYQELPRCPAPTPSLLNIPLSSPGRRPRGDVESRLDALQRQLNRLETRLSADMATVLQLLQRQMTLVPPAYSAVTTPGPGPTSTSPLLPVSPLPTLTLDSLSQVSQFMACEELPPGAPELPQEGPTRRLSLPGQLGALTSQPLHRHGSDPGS

In order of rising “hERG current change (%, negative = inhibition) at 1uM” value:
1. Cc1ccc(CN2CCN(Cc3ccc(-n4cccn4)cc3C)CC2CCO)cc1 (centres unmarked)  -83.8%
2. CCOC(=O)c1ccc(NC(=S)N(CCCN(CC)CC)Cc2ccco2)cc1  -57.9%
3. COc1ccccc1CN1CCCC(C(=O)c2ccccc2SC)C1 (centres unmarked)  -27.3%
4. O=C(Nc1ccc(Cl)cc1)c1ccc2c(=O)n3c(nc2c1)CCCCC3  -21.1%
5. COc1cc2c(C#CCCO)c(-c3ccc(C#N)cc3)oc(=O)c2cc1OC  -15.6%
6. COc1ccc(C(C(=O)NC2CCCC2)N(C(=O)c2snc(-c3ccc(F)cc3)c2N)c2ccccc2)cc1 (centres unmarked)  -6.81%
7. O=C1c2ccccc2C(=O)N1CCCc1c[nH]c2ccccc12  -2.92%
8. CC(Oc1cc2oc(=O)cc(-c3ccccc3)c2cc1Cl)C(=O)NCC1CCC(C(=O)O)CC1 (centres unmarked)  -0.598%
9. COc1ccc(NC(=O)CCSc2ccc3ccccc3n2)cc1  0.419%
10. CC(C)N1CCc2c(sc(NC(=O)CCS(=O)(=O)c3ccccc3)c2C#N)C1.Cl  3.7%
11. Cc1cc(NC(=O)CN2C(=O)NC3(CCCCCC3)C2=O)no1  4.04%
12. CCC(C)(C)c1ccc(OC(=O)c2cccnc2Cl)cc1  4.65%
13. CCC1=C2CC[C@H]3C(=O)N(CC)C(=O)[C@H]3[C@H]2[C@@]2(Cc3ccccc3)C(=O)N(Cc3ccccc3)C(=O)N2C1=O  4.99%
14. O=C(c1ccc(OC2CCN(C(=O)C3CC3)CC2)cc1)N(CCO)Cc1ccccc1  5.02%
15. Cc1nc2nc(Cc3ccccc3)nn2c(C)c1Cl  5.07%
16. CC(=O)c1cccc(NC(=O)NC(C)c2ccc3c(c2)OCO3)c1 (centres unmarked)  5.43%
17. COCCN1Cc2cccc(C(=O)Nc3ccc(-c4nc5ccccc5[nH]4)cc3)c2C1=O  6.52%
18. O=C(NCc1ccccc1)C1CC(=O)N(c2ccc(OCC(=O)N3CCCC3)cc2)C1 (centres unmarked)  6.59%
19. COc1ccc2nc(-c3cccc(N)c3)[nH]c2c1  7.21%
20. Cc1ccc(C2=Nn3c(COc4ccc(Cl)cc4)nnc3SC2CC(=O)O)cc1 (centres unmarked)  7.29%
21. O=C(Nc1ccc(-c2nc3c(ccc4ccccc43)o2)cc1)c1ccco1  7.34%
22. Nc1c(NCCCN2CCOCC2)c2ccccc2oc1=O  7.65%
23. CCOc1ccc(N2CC(C(=O)Nc3nnc(Cc4ccc(OC)cc4)s3)CC2=O)cc1 (centres unmarked)  8.33%
24. O=C(CCCOc1ccc(Cl)cc1)N1CCCCC1  8.46%
25. Cl.Cn1c(C(=O)N2CCN(Cc3ccc4c(c3)OCO4)CC2)cc2sccc21  9.32%
26. O=C(O)c1ccccc1-c1ccccc1C(=O)NNc1ccccc1  9.34%
27. FC(F)(F)c1cnc(-n2cc[nH]c2=S)c(Cl)c1  9.98%
28. CCOP(=O)(OCC)/C(C#N)=C/c1ccoc1  11%
29. COc1ccc([C@H]2/C=C\CN(C(=O)CC(C)(C)C)[C@@H](C)C(=O)N2Cc2ccc(F)cc2)cc1  11.1%
30. CC1=CC(C)[C@@H]2COC(c3ccc(O)cc3)[C@H]1C2C (some centres unmarked)  11.5%
31. Cc1[nH]c2ccccc2c1C(C[N+](=O)[O-])c1cccc(O)c1 (centres unmarked)  11.8%
32. Cc1nc(P(=O)(c2ccccc2)c2ccccc2)c(N2CCOCC2)o1  12.3%
33. CC(=Nc1ccc2c(c1)CCC2)c1c(O)n(C)c(=O)n(C)c1=O  12.4%
34. O=C(CCc1ccc(S(=O)(=O)NCc2ccccc2)cc1)NCC1CCCO1 (centres unmarked)  12.5%
35. CC1(C)CC(=O)C/C(=N\NC(=S)NCc2ccccc2)C1  12.6%
36. Cn1cc(CNC(=O)c2cc(-c3ccccc3)nc3ccc(Br)cc23)cn1  12.7%
37. CCC(=O)Nc1ccc(Nc2ccccc2)cc1  13.7%
38. COc1ccc([N+](=O)[O-])cc1NC(=O)Cc1ccc(C)cc1  13.7%
39. Cc1c(NS(=O)(=O)c2cc(C(=O)NCCN(C)C)ccc2Cl)c(=O)n(-c2ccccc2)n1C.Cl  13.8%
40. COc1ccc(C2C(C(=O)Nc3ccc(F)cc3)=C(C)Nc3nc(CCCO)nn32)cc1 (centres unmarked)  13.9%
41. Cc1ccc(NC(=O)CC(NCC2CCCO2)C(=O)O)cc1C (centres unmarked)  14.9%
42. Cc1ccccc1C(=O)Nc1ccc(C(=O)NNC(=O)CCCOc2ccc(Cl)cc2Cl)cc1  15.3%
43. COC(=O)NCc1ccc(S(=O)(=O)N2CCOCC2)cc1  15.9%
44. O=C(O)c1[nH]c2ccccc2c1C(c1cccc(O)c1)c1c(C(=O)O)[nH]c2ccccc12  19.1%
